# Measurements from the supplement of paper PMC8728848.
# The other results are listed elsewhere or left out.
# B1: diCBM40 CPF071 (Clostridium perfringens) (protein)
# chain: MAHHHHHHVGTGSNDDDDKSPDPMLSSLGEYKDINLESSNASNITYDLEKYKNLDEGTIVVRFNSKDSKIQSLLGISNSKTKNGYFNFYVTNSRVGFELRNQKNEGNTQNGTENLVHMYKDVALNDGDNTVALKIEKNKGYKLFLNGKMIKEVKDTNTKFLNNIENLDSAFIGKTNRYGQSNEYNFKGNIGFMNIYNEPLGDDYLLSKTGETKALNGSELGSGSGLSSLGEYKDINLESSNASNITYDLEKYKNLDEGTIVVRFNSKDSKIQSLLGISNSKTKNGYFNFYVTNSRVGFELRNQKNEGNTQNGTENLVHMYKDVALNDGDNTVALKIEKNKGYKLFLNGKMIKEVKDTNTKFLNNIENLDSAFIGKTNRYGQSNEYNFKGNIGFMNIYNEPLGDDYLLSKTGETK
# Key:
# Test in all cases: glycan array binding signal (z-score within array); higher = stronger binding
# Conditions in all cases: glycan notation: IUPAC condensed, linker removed
# [1] = molecular target: Gal(b1-3)GalNAc(b1-3)Gal(a1-4)Gal(b1-4)Glc
# In short: (§1)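 Columns mapping to the same glycan were averaged after glycan names were converted to IUPAC-condensed notation. The data come from 3228 arrays in the Consortium for Functional Glycomics database, limited to those with an available protein sequence. Binding is reported as a within-array Z-score averaged across arrays of one protein sequence and across linkers.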
# [2] = molecular target: Gal(b1-3)GalNAc(b1-4)Gal(b1-4)Glc
# In short: as §1
# [3] = molecular target: Gal(b1-3)GalNAc(b1-4)[Neu5Ac(a2-3)]Gal(b1-4)Glc
# In short: as §1
# [4] = molecular target: Gal(b1-3)GlcNAc
# In short: as §1
# [5] = molecular target: Gal(b1-3)GlcNAc(a1-3)Gal(b1-4)GlcNAc
# In short: as §1
# [6] = molecular target: Gal(b1-3)GlcNAc(a1-6)Gal(b1-4)GlcNAc
# In short: as §1
# [7] = molecular target: Gal(b1-3)GlcNAc(b1-2)Man
# In short: as §1
# [8] = molecular target: Gal(b1-3)GlcNAc(b1-2)Man(a1-3)[Gal(b1-3)GlcNAc(b1-2)Man(a1-6)]Man(b1-4)GlcNAc(b1-4)GlcNAc
# In short: as §1
# [9] = molecular target: Gal(b1-3)GlcNAc(b1-2)Man(a1-3)[Gal(b1-3)GlcNAc(b1-2)Man(a1-6)]Man(b1-4)GlcNAc(b1-4)[Fuc(a1-6)]GlcNAc
# In short: as §1
# [10] = molecular target: Gal(b1-3)GlcNAc(b1-2)Man(a1-3)[GlcNAc(b1-4)][Gal(b1-3)GlcNAc(b1-2)Man(a1-6)]Man(b1-4)GlcNAc(b1-4)GlcNAc
# In short: as §1
# [11] = molecular target: Gal(b1-3)GlcNAc(b1-2)[Gal(b1-3)GlcNAc(b1-6)]Man(a1-6)[Gal(b1-3)GlcNAc(b1-2)Man(a1-3)]Man(b1-4)GlcNAc(b1-4)GlcNAc
# In short: as §1
# [12] = molecular target: Gal(b1-3)GlcNAc(b1-3)Gal(b1-3)GlcNAc
# In short: as §1
# [13] = molecular target: Gal(b1-3)GlcNAc(b1-3)Gal(b1-4)Glc
# In short: as §1
# [14] = molecular target: Gal(b1-3)GlcNAc(b1-3)Gal(b1-4)GlcNAc
# In short: as §1
# [15] = molecular target: Gal(b1-3)GlcNAc(b1-3)Gal(b1-4)GlcNAc(b1-2)Man(a1-3)[Gal(b1-3)GlcNAc(b1-3)Gal(b1-4)GlcNAc(b1-2)Man(a1-6)]Man(b1-4)GlcNAc(b1-4)GlcNAc
# In short: as §1
# [16] = molecular target: Gal(b1-3)GlcNAc(b1-3)Gal(b1-4)GlcNAc(b1-2)[Gal(b1-3)GlcNAc(b1-3)Gal(b1-4)GlcNAc(b1-6)]Man(a1-6)[Gal(b1-3)GlcNAc(b1-3)Gal(b1-4)GlcNAc(b1-2)Man(a1-3)]Man(b1-4)GlcNAc(b1-4)[Fuc(a1-6)]GlcNAc
# In short: as §1
# [17] = molecular target: Gal(b1-3)GlcNAc(b1-3)Gal(b1-4)GlcNAc(b1-3)Gal(b1-4)GlcNAc(b1-2)[Gal(b1-3)GlcNAc(b1-3)Gal(b1-4)GlcNAc(b1-3)Gal(b1-4)GlcNAc(b1-6)]Man(a1-6)[Gal(b1-3)GlcNAc(b1-3)Gal(b1-4)GlcNAc(b1-3)Gal(b1-4)GlcNAc(b1-2)Man(a1-3)]Man(b1-4)GlcNAc(b1-4)[Fuc(a1-6)]GlcNAc
# In short: as §1
# [18] = molecular target: Gal(b1-3)GlcNAc(b1-3)Gal(b1-4)GlcNAc(b1-6)[Gal(b1-3)GlcNAc(b1-3)]Gal(b1-4)Glc
# In short: as §1
# [19] = molecular target: Gal(b1-3)GlcNAc(b1-3)Gal(b1-4)[Fuc(a1-3)]GlcNAc
# In short: as §1
# [20] = molecular target: Gal(b1-3)GlcNAc(b1-3)Gal(b1-4)[Fuc(a1-3)]GlcNAc(b1-6)[Gal(b1-3)GlcNAc(b1-3)]Gal(b1-4)Glc
# In short: as §1
# [21] = molecular target: Gal(b1-3)GlcNAc(b1-3)GalNAc
# In short: as §1
# [22] = molecular target: Gal(b1-3)GlcNAc(b1-6)Gal(b1-4)GlcNAc
# In short: as §1
# [23] = molecular target: Gal(b1-3)GlcNAc(b1-6)GalNAc
# In short: as §1
# [24] = molecular target: Gal(b1-3)GlcNAc(b1-6)[Gal(b1-3)]GalNAc
# In short: as §1
# [25] = molecular target: Gal(b1-3)GlcNAc6S
# In short: as §1
# [26] = molecular target: Gal(b1-3)[Fuc(a1-4)]GlcNAc
# In short: as §1
# [27] = molecular target: Gal(b1-3)[Fuc(a1-4)]GlcNAc(b1-2)Man
# In short: as §1
# [28] = molecular target: Gal(b1-3)[Fuc(a1-4)]GlcNAc(b1-2)Man(a1-3)[Gal(b1-3)[Fuc(a1-4)]GlcNAc(b1-2)Man(a1-6)]Man(b1-4)GlcNAc(b1-4)[Fuc(a1-6)]GlcNAc
# In short: as §1
# [29] = molecular target: Gal(b1-3)[Fuc(a1-4)]GlcNAc(b1-3)Gal(b1-3)[Fuc(a1-4)]GlcNAc
# In short: as §1
# [30] = molecular target: Gal(b1-3)[Fuc(a1-4)]GlcNAc(b1-3)Gal(b1-4)[Fuc(a1-3)]GlcNAc
# In short: as §1
# [31] = molecular target: Gal(b1-3)[Fuc(a1-4)]GlcNAc(b1-6)GalNAc
# In short: as §1
# [32] = molecular target: Gal(b1-3)[GlcNAc(b1-6)]GalNAc
# In short: as §1
# [33] = molecular target: Gal(b1-3)[Neu5Ac(a2-6)]GalNAc
# In short: as §1
# [34] = molecular target: Gal(b1-3)[Neu5Ac(a2-6)]GlcNAc(b1-4)Gal(b1-4)Glc
# In short: as §1
# [35] = molecular target: Gal(b1-3)[Neu5Ac(b2-6)]GalNAc
# In short: as §1
# [36] = molecular target: Gal(b1-4)Gal
# In short: as §1
# [37] = molecular target: Gal(b1-4)GalNAc(a1-3)[Fuc(a1-2)]Gal(b1-4)GlcNAc
# In short: as §1
# [38] = molecular target: Gal(b1-4)GalNAc(b1-3)[Fuc(a1-2)]Gal(b1-4)GlcNAc
# In short: as §1
binder,measurement,setting,value
B1,glycan array binding signal (z-score),[1],-0.349
same,glycan array binding signal (z-score),[2],-0.216
same,glycan array binding signal (z-score),[3],-0.3
same,glycan array binding signal (z-score),[4],-0.316
same,glycan array binding signal (z-score),[5],-0.311
same,glycan array binding signal (z-score),[6],-0.263
same,glycan array binding signal (z-score),[7],-0.346
same,glycan array binding signal (z-score),[8],-0.168
same,glycan array binding signal (z-score),[9],-0.233
same,glycan array binding signal (z-score),[10],-0.26
same,glycan array binding signal (z-score),[11],-0.337
same,glycan array binding signal (z-score),[12],-0.294
same,glycan array binding signal (z-score),[13],-0.345
same,glycan array binding signal (z-score),[14],-0.346
same,glycan array binding signal (z-score),[15],-0.313
same,glycan array binding signal (z-score),[16],-0.108
same,glycan array binding signal (z-score),[17],0.504
same,glycan array binding signal (z-score),[18],-0.337
same,glycan array binding signal (z-score),[19],-0.329
same,glycan array binding signal (z-score),[20],-0.341
same,glycan array binding signal (z-score),[21],-0.256
same,glycan array binding signal (z-score),[22],-0.332
same,glycan array binding signal (z-score),[23],-0.269
same,glycan array binding signal (z-score),[24],-0.214
same,glycan array binding signal (z-score),[25],-0.315
same,glycan array binding signal (z-score),[26],-0.33
same,glycan array binding signal (z-score),[27],-0.096
same,glycan array binding signal (z-score),[28],-0.207
same,glycan array binding signal (z-score),[29],-0.31
same,glycan array binding signal (z-score),[30],-0.238
same,glycan array binding signal (z-score),[31],-0.151
same,glycan array binding signal (z-score),[32],-0.302
same,glycan array binding signal (z-score),[33],0.025
same,glycan array binding signal (z-score),[34],-0.182
same,glycan array binding signal (z-score),[35],-0.289
same,glycan array binding signal (z-score),[36],-0.153
same,glycan array binding signal (z-score),[37],-0.33
same,glycan array binding signal (z-score),[38],-0.349
